For 22 molecules, binding signal results are on record in publication PMC12136788.

T1: UNK ZnF1-3 (human, UniProt Q9C0B0 31-174)
T1 sequence: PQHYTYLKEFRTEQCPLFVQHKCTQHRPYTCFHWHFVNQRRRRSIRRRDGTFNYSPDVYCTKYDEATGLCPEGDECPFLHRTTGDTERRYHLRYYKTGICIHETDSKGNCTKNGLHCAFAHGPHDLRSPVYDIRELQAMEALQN

B1: chr2:198367945:198367946:+_ENSG00000115541_ENST00000409468|hu_mus|motif|central (ssRNA)
RNA: GGGAGUUCUACAGUCCGACGAUCGACACCAUUUCAACAGUGAUUUCAGUCGACAUACUUUCCAAGAAUGUCACUAUCUCGGAAUAAGAAAUAAUCCUUGUCAUCUAGAACUACUUUGGUGCCUCCAUAUUCUGGGAGAAGAACCAACAGAGGAUUGAGCAUCA
B2: chr16:5026692:5026693:-_ENSMUSG00000022536_ENSMUST00000115844|mus_mus|FALSE|FALSE (ssRNA)
RNA: GGGAGUUCUACAGUCCGACGAUCACCCAUUUUUAGCAAGUUGGAGACGAUGCCACUUCCCAUUAAGCCAAGGCCCAAAAAUCCUAUCUUUUUGUCUGUGGGUGUAAUGCUGCCAUUCACAGCUGUGCUGUCUGCUGCCUGGAUCAACAGAGGAUUGAGCAUCA
B3: chr10:60127708:60127709:+_ENSG00000072401_ENST00000373910|hu_hu|motif|central (ssRNA)
RNA: GGGAGUUCUACAGUCCGACGAUCUGCAUGUCUGUUGUAUUUUUCUUUGUCUGAUUUAUAGAUUUGUGCAAUAUCUGGUACGGAGGGGUCAUCUGGAUUAGGAUCACAAAGUAGAGAACAUAUGGACAAUAAAACUUUUGAUACCAACAGAGGAUUGAGCAUCA
B4: chr1:39494564:39494565:+_ENSG00000168653_ENST00000372967|hu_hu|hu_hu_hu_mus_True|58_98 (ssRNA)
RNA: GGGAGUUCUACAGUCCGACGAUCAUGCAUUCGCCUCAUCGUUUUCUACCGAAGCAAGCACUCUUCGAAGUCAUCGAAUUCUAUCUUGCACUCCUUUUUCGCCCGGGUCCCACCGAUCCCGUGUGCACACUCUAUCCACUCUUUCAACAGAGGAUUGAGCAUCA
B5: chr12:104381838:104381839:+_ENSG00000139372_ENST00000392872|hu_hu|FALSE|FALSE (ssRNA)
RNA: GGGAGUUCUACAGUCCGACGAUCACAAACAGCAAUGAUGCAGAUAAAGAAUCUUUAAAAUUAUUGGCUUACUGGAUUUACCUAGCAAGAAAAAUUCUAUAUUACUUAUUUUAGUACAUCUCAUGUACAUAAAGCACCAGUUUACAACAGAGGAUUGAGCAUCA
B6: chr5:134143580:134143581:+_ENSG00000145833_ENST00000354283|hu_mus|FALSE|FALSE (ssRNA)
RNA: GGGAGUUCUACAGUCCGACGAUCGCCCGCUCUUCCAGUCCGCCCAGCUCUGUGCACAUAAUCUUCAUAAUGAUUGGGGCAGCUGUAAUUCACUACAAGAAUUAGAUGUUUCACAUCGAGACCACGAGCUGCAACAGAUGUGGCCAACAGAGGAUUGAGCAUCA
B7: chr4:144460044:144460045:+_ENSG00000153147_ENST00000283131|hu_mus|hu_hu_hu_mus_False|48_98 (ssRNA)
RNA: GGGAGUUCUACAGUCCGACGAUCACGGUCCAUAGCCUGAAGAUCUACUUGCGGAUUCCAAUCUGAGUCAUAUAAAAUGACUACAUCAGCAGUCGCAAGAUUGAUGCCCAGACCACCAGCACGUGUGCUUAGCAUAAAUACAAACAACAGAGGAUUGAGCAUCA
B8: chr16:75674161:75674162:-_ENSG00000065427_ENST00000302445|hu_mus|FALSE|FALSE (ssRNA)
RNA: GGGAGUUCUACAGUCCGACGAUCGCGGCCUGCCACUUUGAGGGUGACAUCAGUCAGGUGGUCCCCAGGCUGCAGGUGACUAUAUUCUUGGAUGAACUGAGUGAGUGAGAUGUCCACGUGGAACUUGUGUGGGUACGGAUCCUCCAACAGAGGAUUGAGCAUCA
B9: chr4:41951345:41951346:+_ENSG00000109133_ENST00000513702|hu_hu|FALSE|FALSE (ssRNA)
RNA: GGGAGUUCUACAGUCCGACGAUCAAAUAAGGUCCGACAAUAUGGGUUUCUUCGAGACGAAUAUCGAAGGGUAAGAAAUCUAUAGUAUAUAAAAGGUUGGAGCAAACUUCCUUGACCACUAAAAAGCAUAAAAACUGUCGCAGGCAACAGAGGAUUGAGCAUCA
B10: chr9:95013113:95013114:-_ENSG00000196305_ENST00000443024|hu_hu|hu_hu_hu_mus_False|88_88 (ssRNA)
RNA: GGGAGUUCUACAGUCCGACGAUCCUCAGUCAGAAAGGGCGUGUAAGGAGCCAUAAGUCUGCACAGAGAAAGCAGGACACUGAACAGUGUCUCCAGAGCCAUGACACAGUCUUCCACCCCACUCUCACCCUUUAACCUCCUCCUCAACAGAGGAUUGAGCAUCA
B11: 96274653_96277060_1845_CDS_ENSG00000134874_ENST00000376829|human|control|control (ssRNA)
RNA: GGGAGUUCUACAGUCCGACGAUCUUCUUUAAACUCGUGUGCAUCUUUUAAUGUGCCUAUGUUGGACUUGAUCUGCAUAUUGGACUUCUGGAUUUCUGACAGUUGAUAUUCUAAUGCUGAAUUCUUCGAAGUUAAUUCUUUAAACAACAGAGGAUUGAGCAUCA
B12: chr14:103803487:103803488:+_ENSG00000100664_ENST00000558506|hu_mus|hu_hu_hu_mus_True|28_88 (ssRNA)
RNA: GGGAGUUCUACAGUCCGACGAUCGAGUUUAUGAUGUGUGUCAAGCAUGCCUCGAUACCCACAGGCUUUACAAGAAUUACCUAUUGUUUGCUUCUUUGGAUUGACAUGCAAAUCUGUUUCAGGAUUCUCACACUCAGGACAGAGCAACAGAGGAUUGAGCAUCA
B13: chr7:56126341:56126342:+_ENSG00000146731_ENST00000540286|hu_mus|FALSE|FALSE (ssRNA)
RNA: GGGAGUUCUACAGUCCGACGAUCCAUGUUUCUCCUCUUGGCUCUGCGCAGAGCUACGAUCCCUUCUUUCGCAAGGGCAUCUAAGGAAAAGGGGUCAAUCCCCUUUUGAUUAAUAACGACAAAUCCUUUAUCUGAGUCACCACACAACAGAGGAUUGAGCAUCA
B14: chr10:116622662:116622663:+_ENSG00000151553_ENST00000369248|hu_mus|FALSE|FALSE (ssRNA)
RNA: GGGAGUUCUACAGUCCGACGAUCAACAGACUGAGCACAGUGUCAAACAAGCUCCGAGCCAUGCCGCGGCCGUGGCUGUGGCUGUACAGCUCAGCUGGUGACUGCCCCCCCCCCCCGACUGUCUCCCUCAUCGUAACGGCCAGUCAACAGAGGAUUGAGCAUCA
B15: chr7:135832278:135832279:+_ENSMUSG00000042105_ENSMUST00000118605|mus_mus|FALSE|FALSE (ssRNA)
RNA: GGGAGUUCUACAGUCCGACGAUCCUGCUGCCCUAAUCAUUUUUGUUUUCCCGCCACUGUGGCAAACCUUCCUUCCAUACUAUAAAAACAAAAAUUGCCAAAACUACAUGCAGCCCAACCACGGAGACAAUGGUCGCAUAAAAACAACAGAGGAUUGAGCAUCA
B16: chr6:38652254:38652255:-_ENSG00000124767_ENST00000373365|hu_hu|hu_hu_hu_mus_False|8_88 (ssRNA)
RNA: GGGAGUUCUACAGUCCGACGAUCCGAGAACUUCAUAGCAGGGAAGUCACAUUUUUGCAGGAGGGUCAGUCCAAGAACCCUCGUAUAAAAAUCCAGGGACUUCUUAGGAUCCUUAAUUCUUAGCAUCGUCUGCUGCAGUAGAAACAACAGAGGAUUGAGCAUCA
B17: chr4:57314706:57314707:+_ENSG00000128050_ENST00000264221|hu_mus|hu_hu_hu_mus_True|58_98 (ssRNA)
RNA: GGGAGUUCUACAGUCCGACGAUCCAGAAUUUCAAAAAUAGCCUGUGUGGCAUGACUCAUGAUGUCCACUUCAGUCUGGCCUAUAAGAAGGCCAGCAAAACAGAAUUUUGCAGCAAUGAGUUGCUCCUCAGACCACUGUGGAUCCAACAGAGGAUUGAGCAUCA
B18: chr17:73774127:73774128:-_ENSG00000132475_ENST00000254810|hu_hu|FALSE|FALSE (ssRNA)
RNA: GGGAGUUCUACAGUCCGACGAUCAUGACAAGACUCCCCACCACUUGUGAAUGUAAAACAUUUAAUUUAAAAAUGUUGAUACUACAAUAUAUAAAAUAGCUAUUAUAAAUGCACAUAGUGUAUUCUAUAGCUGCCAGGUUUACUCAACAGAGGAUUGAGCAUCA
B19: chr1:54683890:54683891:+_ENSG00000116221_ENST00000360840|hu_hu|motif|central (ssRNA)
RNA: GGGAGUUCUACAGUCCGACGAUCGGGGUUUCAGGAUUCAGAGGGGUCCUCCGCUCACGCAGCACCAUGCAAAUAUAGAGCGGAAAACUUUCUGAAUGUCUCUGGCUUGAAACCAACUGGGCCAACAGGUUCCACAACCACUCUCAACAGAGGAUUGAGCAUCA
B20: chr7:44609470:44609471:-_ENSG00000136271_ENST00000433257|hu_hu|FALSE|FALSE (ssRNA)
RNA: GGGAGUUCUACAGUCCGACGAUCAGCUCCUCAAUCUUGCCUAAGUGGAACUGCUCCGUGGGAAGCACAAAGGUUAAGACUAUGCCUGGGUUGUUAGCGCGUGCUGUCCUGCCAGCUCGAUGGAUGUAGGCCUCAGGGGUUGGGCAACAGAGGAUUGAGCAUCA
B21: chr18:25636641:25636642:-_ENSMUSG00000024268_ENSMUST00000025117|mus_hu|FALSE|FALSE (ssRNA)
RNA: GGGAGUUCUACAGUCCGACGAUCCAUUUACCAAAGAUAAAUAUCGUGCUUUCAUUAAAUAGUUUUCCUUGUUUUUUUCUCUAUCAUUACAAUUAAAAGUCCUACAAAAUAUGCAAAUUUAUUUACAGAAAAACAGAGCCGGCACAACAGAGGAUUGAGCAUCA
B22: chr11:119967308:119967309:-_ENSMUSG00000061306_ENSMUST00000103018|mus_mus|FALSE|FALSE (ssRNA)
RNA: GGGAGUUCUACAGUCCGACGAUCAGGCUGUGAAGGGUCAUCUCCCAGUGUCUCCCCAGCGUGCUCAGCCUCCUCCUCCUGUCCUCGGAGUACAGCCACCCCAGGCUCUGGCUGCACGUCUGCAGGCUUAGGCUUGUCUUCCUCCAACAGAGGAUUGAGCAUCA

The list shows a part of the results.

This test concerns the target T1, UNK ZnF1-3. Kind of test: nsRBNS (natural sequence RNA bind-n-seq); RBNS binding buffer (assumed for nsRBNS): 25 mM Tris pH 7.5, 150 mM KCl, 3 mM MgCl2, 0.01% Triton X-100, 500 ug/ml BSA, 20 U/ml SUPERase-In, 4 C; UNK is unkempt and MSI1 is Musashi-1; names of the RNAs are library labels; protein concentration not given here; high values mean tight binding.
As to B1, the binding signal came out at 1.23 enrichment R.

Regarding B2, the binding signal is 1.01 enrichment R.

Take B3: the binding signal was found to be 1.59 enrichment R.

On to B4, for which the binding signal was 0.649 enrichment R.

In turn, B5 showed a binding signal of 0.943 enrichment R.

With B6, the binding signal came to 2.01 enrichment R.

B7: the binding signal was determined as 0.759 enrichment R.

With B8, the binding signal is 0.992 enrichment R.

Molecule B9 had a binding signal of 2.12 enrichment R.

Regarding B10, the binding signal is 1.28 enrichment R.

In turn, B11 gave a binding signal of 0.675 enrichment R.

As for B12, the binding signal was determined as 1.12 enrichment R.

Take B13: the binding signal worked out at 0.933 enrichment R.

As for B14, the binding signal was determined as 0.896 enrichment R.

Take B15: the binding signal came to 1.71 enrichment R.

On to B16, for which the binding signal worked out at 1.05 enrichment R.

For the molecule B17, the binding signal came to 0.842 enrichment R.

On to B18, for which the binding signal was 1.47 enrichment R.

Take B19: the binding signal stood at 0.71 enrichment R.

In the case of B20, the binding signal came to 1.65 enrichment R.

The molecule B21 returned a binding signal of 0.913 enrichment R.

Regarding B22, the binding signal is 0.851 enrichment R.
